# In the supplement of paper PMC11060735:
# Where “and” joins values, the source holds several entries; their conditions need not be identical. Identical values can stand only once. Counter-ions that a name gives are not always drawn. The campaign covered roughly 1,800 compounds. About 50 (3%) showed activity. Some of the results follow.
# Tested on: mouse p16Ink4a+/- lung fibroblasts (INKBRITE, bleomycin-injured)
# Experiment: percentage of GFP+ (p16Ink4a+) fibroblasts among all cells in well; higher = less depletion of p16Ink4a+ cells, active = 20 or less
# Conditions: 1 µM; 3 days
# 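Further: fibroblasts sorted 14 days after bleomycin, GFP+ and GFP− mixed 1:1 in 384-well plates (GFP− as in-well control), imaged after Hoechst and NucView530 staining, reference wells lacked compound.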
row,Structure (SMILES),percentage of GFP+
1,O=C1NC(=O)/C(=C/c2ccc(-c3ccc(F)cc3O)o2)S1,inactive: 57.2%
2,CCc1cc2c(cc1CC)CC(NC[C@H](O)c1ccc(O)c3nc(O)ccc13)C2 [Indacaterol],inactive: 44.5%
3,OCC(CO)N[C@H]1C[C@](O)(CO)[C@@H](O)[C@H](O)[C@H]1O [Voglibose],inactive: 54.3%
4,O=C(O)Cn1nnc(-c2cc(N3CCC(Oc4cc(F)ccc4Br)CC3)no2)n1,inactive: 45.3%
5,CN(C)CCN(Cc1ccccc1)c1ccccn1 [Tripelennamine],inactive: 45.6%
6,CNC(=O)c1c(F)cccc1Nc1nc(Nc2cc3c(cc2OC)CCN3C(=O)CN(C)C)nc2[nH]ccc12,inactive: 50.1%
7,COc1c2ccoc2cc2oc(=O)ccc12 [Bergapten],inactive: 44.6%
8,Cc1ccc(S(=O)(=O)OCC(=O)Nc2ccc(C(=O)O)c(O)c2)cc1,inactive: 44.4%
9,CC(=O)Oc1cc2c(s1)CCN(C(C(=O)C1CC1)c1ccccc1F)C2 (stereo not given) [Prasugrel],inactive: 49.3%
10,Nc1ccc(C(=O)O)c(O)c1 [Aminosalicylic Acid],inactive: 51.1%
11,"CN(C)CCCN1c2ccccc2Sc2ccc(Cl)cc21 [Chlorpromazine Hydrochloride, Chlorpromazine]",inactive: 50.8%
12,Cn1nnc2c(C(N)=O)ncn2c1=O [Temozolomide],inactive: 29.2%
13,C[C@H]1c2cccc(O)c2C(=O)C2=C(O)[C@]3(O)C(O)=C(C(N)=O)C(=O)[C@@H](N(C)C)[C@@H]3[C@@H](O)[C@@H]21 [Doxycycline],inactive: 48.7% and inactive: 54.2%
14,COC(=O)[C@H](c1ccccc1Cl)N1CCc2sccc2C1 [Clopidogrel],inactive: 36.5%
15,CN1c2ccccc2C(=O)N2CCc3c([nH]c4ccccc34)C21 (stereo not given) [Evodiamine],inactive: 30.8%
16,Cc1ccc(S(=O)(=O)/C=C/C#N)cc1,inactive: 35.5%
17,"Cc1ccc(-c2nn(C(C)(C)C)c3ncnc(N)c23)cc1 [1-Ter-Butyl-3-P-Tolyl-1h-Pyrazolo[3,4-D]Pyrimidin-4-Ylamine]",inactive: 49.9%
18,O=C1c2c(O)cc(O)cc2O[C@H](c2cc(O)c(O)c(O)c2)[C@H]1O [Dihydromyricetin],inactive: 41%
19,CS(=O)(=O)Nc1ccc([N+](=O)[O-])cc1Oc1ccccc1 [Nimesulide],inactive: 36.5%
20,CC(C)(F)C[C@H](N[C@@H](c1ccc(-c2ccc(S(C)(=O)=O)cc2)cc1)C(F)(F)F)C(=O)NC1(C#N)CC1 [Odanacatib],inactive: 44.3%
